From paper PMC6919601, “Identification of Plasmodium dipeptidyl aminopeptidase allosteric inhibitors by high throughput screening” (PLoS ONE, 2019)
Screen size: about 110,000 compounds; about 230 (0.21%) showed an effect of 50% or more. The list shows a part of the results.

target: DPAP1 (Plasmodium falciparum, UniProt Q8IIJ9); experiment: primary screen, percent inhibition; read by cleavage of a fluorogenic dipeptide substrate; higher = more effect of the substance; set-up: species or system P. falciparum D10 trophozoite lysates; single well
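Further: 30 min substrate incubation versus DMSO and 10 µM JCP410 controls.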

Chain of DPAP1 (Q8IIJ9 whole entry, looked up): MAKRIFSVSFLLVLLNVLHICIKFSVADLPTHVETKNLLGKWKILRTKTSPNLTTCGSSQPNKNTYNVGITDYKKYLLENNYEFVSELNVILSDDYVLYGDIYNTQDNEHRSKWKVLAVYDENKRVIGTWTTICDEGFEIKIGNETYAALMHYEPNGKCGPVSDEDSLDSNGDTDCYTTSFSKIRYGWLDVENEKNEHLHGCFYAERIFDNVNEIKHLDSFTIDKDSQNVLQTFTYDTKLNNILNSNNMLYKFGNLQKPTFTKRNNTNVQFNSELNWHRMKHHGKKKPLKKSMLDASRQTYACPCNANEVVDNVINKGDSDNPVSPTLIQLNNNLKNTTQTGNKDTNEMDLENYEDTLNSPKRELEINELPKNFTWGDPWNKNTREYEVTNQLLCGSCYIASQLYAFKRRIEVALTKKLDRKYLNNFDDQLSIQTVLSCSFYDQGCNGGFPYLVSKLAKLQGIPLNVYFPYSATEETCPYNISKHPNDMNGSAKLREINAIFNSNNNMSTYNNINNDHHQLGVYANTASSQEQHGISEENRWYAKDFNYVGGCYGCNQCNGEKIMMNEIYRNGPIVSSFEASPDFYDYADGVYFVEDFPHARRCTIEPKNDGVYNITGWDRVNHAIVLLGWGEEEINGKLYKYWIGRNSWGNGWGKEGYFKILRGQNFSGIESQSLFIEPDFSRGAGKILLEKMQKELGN

| Structure (SMILES) | % Inhibition @ 10 uM |
| --- | --- |
| COc1ccc(Oc2ccc(Oc3ccc(OC)cc3)cc2)cc1 | 4.41% |
| Clc1ccc(CN2CCOCC2)c(Cl)c1 | -5.65% |
| C=CCNC(=O)C(=O)Nc1cccc(Cl)c1 | -5.9% |
| COc1ccc(C(=O)Nc2cccc(C)c2C(=O)O)cc1 | -1.41% |
| COc1ccc2c(c1)C1=NN(C(C)=O)C(c3ccc(N(C)C)cc3)C1CC2 (stereo not shown) | 4.78% |
| O=C(NCCc1ccccc1)c1ccccc1CN1C(=O)c2ccccc2C1=O | 20.3% |
| NC(=O)c1c(NC(=O)COc2ccccc2Br)sc2c1CCCCCC2 | -3.83% |
| COc1cccc(N/C(=N\C(C)=O)Nc2nc(C)cc(C)n2)c1 | -0.553% |
| O=C(O)CC(NS(=O)(=O)Cc1ccccc1)c1ccc(OC2CCCC2)cc1 (stereo not shown) | 5.13% |
| C/C(=N\[C@@H](CS(=O)(=O)Cc1ccccc1)C(=O)NCC#N)NS(=O)(=O)c1ccccc1 | -3.14% |
| C=CCc1cccc2cc(C(=O)Nc3ccccc3)c(=O)oc12 | -4.08% |
| O=S(=O)(NC1CCCCC1)c1ccc(S(=O)(=O)N(Cc2ccccc2F)C2CC2)cc1 | 6.7% |
| CCOC(=O)c1ccc(NC(=O)/C=C/c2ccc3c(c2)OCO3)cc1 | -1.84% |
| COc1ccc(CNCc2c(C(=O)O)n(Cc3ccccc3)c3cc(C)ccc23)cc1OC | 5.68% |
| O=C(c1cc2ccc3cccnc3c2[nH]1)N1CCC(c2ccccc2)C1 (stereo not shown) | -0.528% |
| CC(NC(=O)CN(c1ccccc1F)S(=O)(=O)c1ccccc1)c1ccccc1 (stereo not shown) | 0.189% |
| Oc1ccc(Nc2nc(-c3ccc(Cl)cc3)cs2)cc1 | -2.43% |
| CCc1cc2c(cc3c(=O)n(CCCC(=O)NCc4cccc(OC)c4OC)ncn32)s1 | -1.7% |
| Cc1cccc(C(=O)Nc2ccc(S(=O)(=O)Nc3nc(C)cc(C)n3)cc2)c1 | -1.38% |
| COc1ccc(CCNC(=O)CSc2nc(O)c3cnn(-c4ccc(C)cc4)c3n2)cc1OC | 0.208% |
| O=C(Cc1coc2ccc3ccccc3c12)NCc1cccnc1 | -1.07% |

| Structure (SMILES) | % Inhibition @ 10 uM |
| --- | --- |
| CCN(CC)CCCNC(=O)c1nc(CS(=O)(=O)c2ccccc2)no1 | 15.6% |
| CC(C)CCn1c(CN2CCN(C(=O)c3ccco3)CC2)nc2c1c(=O)n(C)c(=O)n2C | 2% |
| COc1ccc(Cl)cc1C=C1C(=O)N(C)C(=O)N(C)C1=O | 5.94% |
| CCN(CC)CCCC(C)NC(C)=C1C(=O)N(C)C(=O)N(C)C1=O (stereo not shown) | 5.98% |
| CC1=C(C(=O)OCCc2ccccc2)C(c2ccccc2)NC(=O)N1 (stereo not shown) | 0.736% |
| CN1C(=O)/C(=C(O)/C=C/c2ccc(Cl)cc2)C2c3ccccc3OC13CCCC23 (stereo not shown) | -7.21% |
| COc1cc(NC(=O)c2cc(OC)c(OC)c(OC)c2)c2ncccc2c1 | -1.89% |
| CC(C)n1c(SCc2ccc(Cl)cc2)nc2c1c(=O)[nH]c(=O)n2C | -6.7% |
| CC1=C(C(=O)N2CCOCC2)C(c2cc(Br)ccc2F)C2=C(O)CCCC2=N1 (stereo not shown) | 1.86% |
| COc1ccc2cc3c(N)nn(C(=O)CCS(=O)(=O)c4ccccc4)c3nc2c1 | 2.5% |
| CCOc1ccc(CCNCc2c(C(=O)O)n(Cc3ccccc3C)c3cc(OC)ccc23)cc1 | -7.21% |
| COc1ccc(-c2cc(/N=C(/NC3CCCCC3)SC)[nH]n2)cc1OC | -4.07% |
| CC(C)CCCN/C=C1/C(=O)NC(=O)N(c2ccc(Br)cc2)C1=O | 4.6% |
| COc1ccc(C2C3C(=O)N(c4ccc(C#N)cc4)C(=O)C3ON2c2ccccc2)cc1 (stereo not shown) | -6.51% |
| Nc1cc(O)nc(SCc2nc3ccccc3n2Cc2ccccc2)n1 | -2.6% |
| CCOC(=O)c1c(NC(=O)CSc2nc(O)c3cnn(-c4ccccc4)c3n2)sc2c1CCC2 | -5.22% |
| CC1=NN2C(=N)/C(=C\c3cccn3-c3ccc(Cl)c(Cl)c3)C(=O)N=C2S1 | -1.54% |
| COc1cc(S(=O)(=O)N2CCCCC2)ccc1N/C=C1/C(=O)NC(=O)N(c2ccc(C)cc2)C1=O | 3.05% |
| C=CCSc1nnc(NC(=O)Cc2coc3ccc(OC)cc23)s1 | 44% |
| O=S(=O)(c1ccccc1)N1CCC[C@H]1C(O)(c1ccccc1)c1ccccc1 | 0.324% |
| Cc1onc(-c2ccccc2Cl)c1C(=O)Nc1sc2c(c1C(N)=O)CCC(C)C2 (stereo not shown) | -1.36% |

| Structure (SMILES) | % Inhibition @ 10 uM |
| --- | --- |
| COCCNC(=O)C1c2ccccc2C(=O)N(CCOC)C1c1ccc(F)cc1 (stereo not shown) | 5.11% |
| COc1ccc(CN2CCN(Cc3cccc(OC)c3OC)CC2)cc1 | 9.67% |
| Cc1ccc2[nH]c(SCC(=O)Nc3ccc(Cl)cc3)nc2c1 | 5.24% |
| O=C(CN1CCCC1=O)N1CCOCC1 | 1.69% |
| CCN(CC)CCNc1ccc([N+](=O)[O-])cn1 | -1.15% |
| COc1ccccc1NC(=O)C1=C(C)Nc2sc(C#N)c(N)c2C1c1ccco1 (stereo not shown) | -1.98% |
| Fc1cccc(-c2nnc(-c3ccc(C(F)(F)F)cc3)o2)c1 | -2.54% |
| CCCC(=O)C1CCN(C(=O)c2ccc(C(C)(C)C)cc2)CC1 | 5.25% |
| Cc1ccc(C)c(CSc2ncccc2C(=O)O)c1 | 2.79% |
| O=C(CCC(=O)N1Cc2ccccc2Oc2ncccc21)N1CCOCC1 | 3.87% |
| Cc1ccc2ncc(NC(=O)NCCCn3ccnc3)c(O)c2c1 | 6.92% |
| CCOC(=O)N1CCN(C(=O)c2ccc(CN(c3ccc(C)c(C)c3)S(C)(=O)=O)cc2)CC1 | -1.98% |
| O=C(NCCN1CCOCC1)c1ccc(Cn2c(SCc3ccccc3)nc3cccnc32)cc1 | 0.95% |
| CS(=O)(=O)N(CC(=O)N1CCN(c2ccc(F)cc2)CC1)C1CCCCC1 | 2.4% |
| O=[N+]([O-])c1ccc([S+](O)N(c2ccccn2)C2CCCCC2)cc1 (stereo not shown) | 2.65% |
| COc1cccc(/C=C/C(=O)C2C(=O)c3ccccc3C2=O)c1 | -1.03% |
| CSc1ccc(CNC(=O)CCC(=O)N2CC=C(c3c[nH]c4ccccc34)CC2)cc1 | -2.01% |
| CC1CC(Nc2ccccc2)c2ccccc2N1C(=O)COc1ccc(F)cc1 (stereo not shown) | 3% |
| CCOC(=O)c1sc2nc(C)nc(NCc3ccccc3OC)c2c1C | -4.74% |
